The values that follow come from PMC4336329 (PLoS ONE, 2015).

SMILES strings stand for the structures. Out of some 310,000 compounds screened, about 14,000 (4.5%) showed an effect of 50% or more. The effect is printed as a negative number. The list shows a part of the results.
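Note: peak tail current of the secondary pulse compared with the same well before compound.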

Chain of human ether-à-go-go-related gene (hERG) potassium channel (Q12809 whole entry, looked up): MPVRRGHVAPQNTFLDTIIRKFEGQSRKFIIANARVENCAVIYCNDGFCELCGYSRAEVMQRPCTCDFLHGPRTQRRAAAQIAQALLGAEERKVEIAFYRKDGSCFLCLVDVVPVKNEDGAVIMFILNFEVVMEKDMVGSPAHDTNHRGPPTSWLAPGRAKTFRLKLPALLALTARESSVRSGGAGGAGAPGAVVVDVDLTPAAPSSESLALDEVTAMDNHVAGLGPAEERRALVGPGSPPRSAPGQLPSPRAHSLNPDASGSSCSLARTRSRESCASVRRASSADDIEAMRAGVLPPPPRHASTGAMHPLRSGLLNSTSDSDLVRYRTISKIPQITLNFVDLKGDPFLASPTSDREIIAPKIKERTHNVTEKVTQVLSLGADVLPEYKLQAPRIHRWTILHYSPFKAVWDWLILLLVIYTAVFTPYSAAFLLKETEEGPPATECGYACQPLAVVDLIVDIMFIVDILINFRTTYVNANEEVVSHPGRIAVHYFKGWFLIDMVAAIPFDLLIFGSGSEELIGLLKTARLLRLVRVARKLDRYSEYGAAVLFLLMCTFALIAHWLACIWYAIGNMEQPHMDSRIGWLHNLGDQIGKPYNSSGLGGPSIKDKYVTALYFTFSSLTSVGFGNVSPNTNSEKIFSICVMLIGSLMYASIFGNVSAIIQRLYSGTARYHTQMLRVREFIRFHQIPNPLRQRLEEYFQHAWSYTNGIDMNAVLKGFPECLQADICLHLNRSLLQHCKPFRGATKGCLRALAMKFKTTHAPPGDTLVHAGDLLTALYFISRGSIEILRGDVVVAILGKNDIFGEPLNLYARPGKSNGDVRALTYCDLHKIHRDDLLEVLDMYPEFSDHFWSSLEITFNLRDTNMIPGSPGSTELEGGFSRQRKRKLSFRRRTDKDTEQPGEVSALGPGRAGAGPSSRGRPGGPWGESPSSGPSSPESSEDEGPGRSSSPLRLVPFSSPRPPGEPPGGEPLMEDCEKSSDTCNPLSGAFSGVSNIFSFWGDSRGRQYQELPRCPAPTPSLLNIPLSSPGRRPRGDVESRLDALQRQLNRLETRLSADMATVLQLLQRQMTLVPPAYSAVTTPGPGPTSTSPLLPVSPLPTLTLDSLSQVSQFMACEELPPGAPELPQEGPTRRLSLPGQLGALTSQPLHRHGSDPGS

This assay concerns the target human ether-à-go-go-related gene (hERG) potassium channel (human, UniProt Q12809). In words: primary screen, population patch clamp on CHO cells stably expressing hERG.
With `CC(=O)N1c2c(cc(Br)cc2S(=O)(=O)NCc2ccc3c(c2)OCO3)CC1C` (centres unmarked), the “hERG current change (%, negative = inhibition) at 10uM” value was -49.8%.
On to `CC(C)(C)NC(=O)C(c1ccncc1)N(Cc1cccs1)C(=O)Cn1nnc(-c2cccs2)n1` (centres unmarked), for which the “hERG current change (%, negative = inhibition) at 10uM” value was -23.3%.
Turning to `CCc1ccccc1Nc1nc(N)nc(CSc2nnnn2C)n1`, the “hERG current change (%, negative = inhibition) at 10uM” value came to 8.71%.
Take `NS(=O)(=O)c1ccc(CCNC(=O)c2cc(=O)[nH]c3ccccc23)cc1`: the “hERG current change (%, negative = inhibition) at 10uM” value was 21.2%.
To `NNC(=O)c1[nH]c(-c2ccccc2)cc1-c1ccccc1` belongs 21%; to `CC(CNS(=O)(=O)c1ccc(Cl)cc1)n1cncn1` (centres unmarked), 10.4%; to `CC1CN(c2ccc(NS(=O)(=O)c3ccccc3)cc2C(=O)O)CC(C)O1` (centres unmarked), 3.11%.
To `COc1cccc(C2CC(C(F)(F)F)n3ncc(C(=O)NC(C)(C)C)c3N2)c1` (centres unmarked) belongs 14.9%; to `CCc1nc2ccccc2c(C(=O)NCc2ccc(OC)cc2)c1C`, -15.7%.
Turning to `COC(=O)[C@H](C)NC(=O)NCc1ccc(F)cc1`, the “hERG current change (%, negative = inhibition) at 10uM” value came out at 9.23%.
The value for `O=C(/C=C/c1cccc([N+](=O)[O-])c1)Nc1ccccn1` was 3.16%; that for `CCOC(=O)N1CCN(C(=O)CSc2nc(=O)n3cc(C)ccc3n2)CC1` was -10.6%.
The value for `CCn1c(SCC(=O)Nc2ccccc2F)nc2c(c1=O)SC(C)C2` (centres unmarked) was -17.4%; that for `CCCOc1ccc(N2C(=O)CC(NCc3ccncc3)C2=O)cc1` (centres unmarked) was -11.6%.
For `O=c1c2c(-c3cccs3)csc2ncn1/N=C/c1ccccn1`, the “hERG current change (%, negative = inhibition) at 10uM” value came out at 7.71%.
To `Cc1ccc(NC(=O)CN(C)C(=O)c2cccc(S(=O)(=O)NCc3ccco3)c2)cc1` belongs -22%; to `O=C(COC(=O)CCCNC(=O)c1ccc(Cl)cc1)Nc1ccc(Br)cc1`, -8.05%.
The value for `CN(C)CCOC(=O)/C(=C/c1cn(C)c2ccccc12)NC(=O)c1ccccc1` was -21.7%; that for `CCN(CC)CCn1c(=S)[nH]c2cc3c(cc2c1=O)OCO3` was -24.2%.
In the case of `Cn1c(NC(=O)/C=C\c2ccccc2)cc(=O)n(C)c1=O`, the “hERG current change (%, negative = inhibition) at 10uM” value came to 17.4%.
The value for `COc1ccc(C(C(=O)NC(C)(C)C)N(CCc2ccccc2)C(=O)CCC(=O)Nc2cc(C)on2)cc1` (centres unmarked) was -35.4%; that for `CCc1ccc(NC(=O)Cn2cc([N+](=O)[O-])nc2C)cc1` was 19%.
In the case of `CN1CC(=O)N(CC(=O)Nc2ccc(N3CCOCC3)cc2)C1=O`, the “hERG current change (%, negative = inhibition) at 10uM” value was determined as 4.85%.
As to `COC(=O)c1ccccc1NC(=S)N(Cc1ccc2c(c1)OCO2)Cc1cc2cc(C)ccc2[nH]c1=O`, the “hERG current change (%, negative = inhibition) at 10uM” value is given as 0.949%.
The value for `COc1ccccc1N(CC(=O)Nc1cccnc1)S(C)(=O)=O` was 6.19%; that for `CCCOc1ccc(C2c3c(oc4cc(C)c(C)cc4c3=O)C(=O)N2CCCN2CCOCC2)cc1` (centres unmarked) was -12.1%.
`Cc1cccc(-n2ncc3c(=O)[nH]c(SCC(=O)N4CC(=O)Nc5ccccc54)nc32)c1`: the “hERG current change (%, negative = inhibition) at 10uM” value amounted to 11.6%.
The value for `CC(C)OC(=O)CSc1nc(-c2ccc(F)cc2)nc2ccc(F)cc12` was -40%; that for `CCCC(c1nnnn1CS(=O)(=O)c1ccc(C)cc1)N1CCN(c2ccccc2)CC1` (centres unmarked) was 0.335%; that for `O=C(c1ccccc1NS(=O)(=O)c1ccc(F)cc1)N1CCCC1` was -11.3%.
To `Cn1c(=O)[nH]c2sc3c(c2c1=O)CC(C)(C)OC3` belongs -11.6%; to `O=C1OC(CC(=O)N(Cc2nnc(-c3ccccc3Cl)o2)C2CC2)c2ccccc21` (centres unmarked), -40.3%; to `O=C(COc1ccc(S(=O)(=O)NCCc2ccccc2)cc1)N1CCCC1`, -6.78%.
The value for `CCn1c(CNc2ccc(OC)cc2)nnc1SCC(=O)c1ccc(OC)cc1` was -19.9%; that for `CCN(CCn1cccn1)C(=O)c1ccc(OC2CCN(C(=O)COC)CC2)cc1` was 15.8%; that for `CN1C(C(=O)Nc2cccc(O)c2)=CC(c2ccco2)=NS1(=O)=O` was 5.21%.
For `C/C(=N\NC(=O)c1ccccc1)c1ccc(-n2ccnc2)cc1`, the “hERG current change (%, negative = inhibition) at 10uM” value was -12.3%.
To `CC(=O)c1ccc(NC(=O)C2CCCO2)cc1` (centres unmarked) belongs 14.9%; to `CCc1nnc(NC(=O)CCC(=O)NCCc2ccc(OC)c(OC)c2)s1`, 15.5%.
To `C=CCNC(=S)NNC(=O)c1cccn(Cc2ccc(Cl)cc2Cl)c1=O` belongs -0.856%; to `CC1(C)CC(NC(=S)Nc2ccc(S(N)(=O)=O)cc2)CC(C)(C)N1`, 9.88%; to `CCC(O)c1nc2ccccc2n1CCc1ccccc1` (centres unmarked), -0.168%.
To `COc1ccc([N+](=O)[O-])cc1NC(=O)CSCc1ccc(Br)cc1` belongs -19.4%; to `CCOC(=O)C1=C(C)N(c2ccc(Cl)cc2)C(=O)NC1c1cccc([N+](=O)[O-])c1` (centres unmarked), -24.8%.
Take `CCN(CC)CCNC(=O)c1c(O)c2cc(OC)c(OC)cc2[nH]c1=O.Cl`: the “hERG current change (%, negative = inhibition) at 10uM” value came out at 23.2%.
To `Cc1ccc2cccc(OC(=O)/C=C\c3ccccc3)c2n1` belongs 30.8%.
To `CCOc1ccc(N(C)C(=O)CCc2nnc3ccc(N4CCC5(CC4)OCCO5)nn23)cc1` belongs 12.8%; to `COC(=O)c1ccccc1NC(=O)CSc1ncccn1`, -3.83%; to `CC1(C)C(C=C(Cl)Cl)C1C(=O)N/N=C/c1ccccc1F` (centres unmarked), 1.85%.
To `CC(C)(C)NCC(O)COc1ccc(Br)cc1.Cl` (centres unmarked) belongs -10.2%; to `Cc1cc(=O)oc2c(C)c(OC(C)C(=O)NCC3CCC(C(=O)O)CC3)ccc12` (centres unmarked), 13.8%; to `Cc1cc(C)nc(NC(=O)/C=C/c2ccc(Cl)cc2)n1`, -25.4%.
`Cc1ccc(NC(=O)c2ccc(Oc3ncccn3)cc2)cc1`: the “hERG current change (%, negative = inhibition) at 10uM” value stood at 12.2%.
To `O=C(NCCOc1ccc(F)cc1)C1CCC(=O)N(CC2CCCCC2)C1` (centres unmarked) belongs -33%; to `Cc1c(NC(=O)CSc2ccc(Cl)cc2)c(=O)n(-c2ccccc2)n1C`, -12.5%.
Turning to `O=c1c(C(c2ccc(F)cc2)c2c(O)nc3n(c2=O)CCCS3)c(O)nc2n1CCCS2`, the “hERG current change (%, negative = inhibition) at 10uM” value was 9.97%.
To `COc1ccccc1-n1ccnc(SCC(=O)NCc2ccccc2)c1=O` belongs 14.4%; to `O=S(=O)(c1ccc(F)c(F)c1)N1CCCc2ccccc21`, 9.31%; to `Cc1nn(-c2ccccc2)c(N)c1C(O)(C(F)(F)F)C(F)(F)F`, 9.92%.
To `COC(=O)c1ccc(/C=N/NC(=O)CCSc2nc3ccccc3s2)cc1` belongs 11.2%.
To `Cc1ccc(C(C)C)c(OCC(=O)NN2C(=O)c3ccccc3C2=O)c1` belongs -7.11%; to `Cc1ccccc1N1C(=O)NC(=O)/C(=C\c2ccc3c(c2)CCCN3Cc2ccccc2)C1=O`, 11%.
As for `C=CCN(CC=C)Cc1c(C)[nH]c2c(C)c(C)ccc2c1=O`, the “hERG current change (%, negative = inhibition) at 10uM” value is on record as -24.4%.
To `COCc1nnc(NC(=O)c2cc3ccccc3o2)s1` belongs 19.3%; to `O=C(N/N=C/c1ccc([N+](=O)[O-])s1)C(O)c1ccccc1` (centres unmarked), 8.68%.
The value for `CN(C(=O)CSc1nnc(-c2ccc(C(C)(C)C)cc2)n1C)C1CCS(=O)(=O)C1` (centres unmarked) was -3.7%; that for `C#CCOCCOCCOCCNc1nc(OC)nc(N2CCN(C(=O)[C@H](CCC(=O)O)n3cc(C(N)CO)nn3)CC2)n1.Cl` (some centres unmarked) was 22.5%; that for `CC(C(=O)NCC1CCCO1)n1cc([N+](=O)[O-])cn1` (centres unmarked) was 11.7%.
On to `COc1ccc(NS(=O)(=O)c2cccc(-c3nnc4n3CCCCC4)c2)cc1`, for which the “hERG current change (%, negative = inhibition) at 10uM” value was -11.4%.
The value for `CSc1nsc(SCC(=O)Nc2ccccc2C(N)=O)n1` was -1.64%.
To `CN(Cc1ccccc1)C(=O)CN1C(=O)c2ccccc2S1(=O)=O` belongs 1.82%; to `Cc1c(C(=O)Nc2ccccc2F)cnn1-c1ccccc1`, 8.32%; to `COc1ccccc1C(=O)COC(=O)CCNS(=O)(=O)c1ccc(C)c(C)c1`, -21.9%.
The value for `CC(C)CC(=O)NC(=S)NNC(=O)c1cccc([N+](=O)[O-])c1` was 12.2%; that for `Cn1c(=O)c([N+](=O)[O-])c(-n2cnc3ccccc32)c2ccccc21` was -12.6%; that for `CCOC(=O)c1nc2sc3c(c2c(=O)n1C(C)C(=O)OCC)CCCC3` (centres unmarked) was 1.81%.
For the compound `O=C(C1=C[C@H](c2ccccc2)C[C@H](OCc2ccc(CO)cc2)O1)N1CCOCC1`, the “hERG current change (%, negative = inhibition) at 10uM” value was -1.21%.
As for `COC(=O)C1=C(C)N=c2s/c(=C/c3ccoc3)c(=O)n2C1c1ccccc1` (centres unmarked), the “hERG current change (%, negative = inhibition) at 10uM” value is -5.01%.
For the compound `O=C(COC(=O)c1ccccc1)Nc1ccccc1Br`, the “hERG current change (%, negative = inhibition) at 10uM” value is listed as -3.27%.
For the compound `Cc1cccc(C)c1NC(=O)c1c(-c2ccccc2)noc1C`, the “hERG current change (%, negative = inhibition) at 10uM” value was -6.26%.
The value for `CC1C2Cn3c(nc4ccccc43)C1N(C(C)C)O2` (centres unmarked) was 7.71%; that for `O=C(CNCC1CCCO1)N1CCN(S(=O)(=O)c2ccc3ccccc3c2)CC1.O=C(O)C(=O)O` (centres unmarked) was -27.2%; that for `Cc1ccc(C(=O)Nc2cccc(NC(=O)c3cccs3)c2)c(C)c1` was -29.7%.
Turning to `COC(=O)c1cc(NC(=O)CC2NC3CCCCC3NC2=O)cc(C(=O)OC)c1` (centres unmarked), the “hERG current change (%, negative = inhibition) at 10uM” value is listed as -12.3%.
The value for `O=C(O)CCCC(=O)N1CCN(C(c2ccccc2)c2ccccc2)CC1` was 7.31%; that for `CC1=C(C(N)=O)C(c2cccs2)n2nc(-c3cccc(Cl)c3)nc2N1` (centres unmarked) was -24.9%.
